# Results from PubChem BioAssay AID504845 (National Center for Advancing Translational Sciences (NCATS), 2011).
# The campaign covered roughly 390,000 compounds. About 150 (0.038%) were called active. The inconclusive results got no clear call from the source; some entries with a clear call stand among them for comparison. Calls come from the whole dose curve; as a rule, active = well fitted inhibition curve with a large enough effect; inconclusive = small, poorly fitted or top-dose-only effect; inactive = no such curve, though single readings can be large or run the other way. A potency beside an inconclusive call is a rough fit, not a confirmed value. Where a structure was tested more than once in an assay, its records may differ in their call.
# Molecular target: Regulator of G-protein signaling 4 (Homo sapiens) (UniProt P49798)
# Assay: Inhibitors of Regulator of G Protein Signaling (RGS) 4: qHTS; note: nearly all actives have a fitted effect of over 75% in size
# Settings: Transcreener GDP fluorescence polarization, RGS4-accelerated GTP hydrolysis; series mostly up to 114 µM
# Procedure, shortened: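 MLSMR compounds (23 nl, pin-transferred) preincubated 10 min at room temperature with a 500nM (2x) first reagent, then RGS4 at 900nM (2x) plus Transcreener GDP mix added; fluorescence polarization (620/688 nm) read before and after 90 min at 30 °C.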
# % is set by controls: 0 for no effect and ±100 for the full control effect; potency is the fitted concentration of half-maximal effect; tags give direction and shape of the fitted curve.
# Sequence of UniProt P49798 (P49798 whole entry, looked up): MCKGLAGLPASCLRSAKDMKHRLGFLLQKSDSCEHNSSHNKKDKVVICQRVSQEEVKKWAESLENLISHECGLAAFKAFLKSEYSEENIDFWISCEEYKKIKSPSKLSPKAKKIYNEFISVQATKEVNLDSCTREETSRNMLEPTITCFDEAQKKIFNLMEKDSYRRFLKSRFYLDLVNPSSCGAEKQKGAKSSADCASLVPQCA
Structure (SMILES),Potency,"activity change, negative = inhibition"
Cc1cc(OCc2nc3ccccc3s2)ccc1N,"inconclusive: 56.2 µM [inhibitor, partial curve, poor fit]",–
COc1cccc(-c2nc(-c3ccc(NC(=O)Cc4ccccc4OC)cc3)no2)c1,"inconclusive: 89.1 µM [inhibitor, single point]",–
COc1cc(C=O)ccc1Oc1nc(Nc2ccc(F)cc2F)nc(N2CCOCC2)n1,"inconclusive: 44.7 µM [inhibitor, partial curve, poor fit]",–
O=C(CSC1=NNC(c2ccccn2)S1)Nc1ccc(C(F)(F)F)cc1 (stereo not drawn),"inconclusive: 50.1 µM [inhibitor, partial curve, poor fit]",–
COc1ccc(NC(=S)NC(=O)c2ccccc2Cl)cc1,"inconclusive: 39.8 µM [inhibitor, partial curve, poor fit]",–
COCCCNC(=S)N/N=C/c1ccc(O)cc1O,inactive,–
CC1(C)CC(=O)C2=C(C1)Nc1nc(SCCN3CCOCC3)[nH]c(=O)c1C2c1cccs1 (stereo not drawn),inactive,–
COc1ccc(NC(=O)c2ccco2)cc1NC(=O)COc1ccc(C)cc1C,"inconclusive: 39.8 µM [inhibitor, partial curve, poor fit]",–
C#CCOCCOCCOCCNc1nc(N2CCN(C(=O)CCCCCCCCCCNC(=O)[C@H](CO)n3cc(CCCSC)nn3)CC2)nc(N2CCN(C(=O)CCCCCCCCCCNC(=O)[C@H](CCCCN)n3cc(CCO)nn3)CC2)n1,"inconclusive: 44.7 µM [inhibitor, partial curve, poor fit]",–
CC(C)n1ncc2c(C(=O)Nc3ccc(S(N)(=O)=O)cc3)cc(C3CC3)nc21,inactive,–
COc1ccc(CC(=O)Nc2cccc(-c3nnc(-c4ccccc4)o3)c2)cc1OC,"inconclusive: 20 µM [inhibitor, full curve, poor fit]",–
Cc1cccc(-c2nsc(SCC(=O)NCC3CCCO3)n2)c1 (stereo not drawn),"inconclusive: 44.7 µM [inhibitor, partial curve, poor fit]",–
CC(C)CC(=O)Nc1c(C(=O)N2CCN(c3ccccc3F)CC2)oc2ccccc12,inactive,–
Cn1c(=O)n(CCc2ccccc2)c(=O)c2c1nc1n2CCN1c1ccc(Cl)cc1,inactive,–
Cc1ccc(-c2nc3sc(C#N)c(N)n3c(=O)c2C#N)cc1,"inconclusive: 89.1 µM [inhibitor, partial curve, poor fit]",–
Cc1ccc(-c2nn(-c3ccccc3)cc2C2SCC(=O)N2Cc2ccccc2)o1 (stereo not drawn),"inconclusive: 56.2 µM [inhibitor, partial curve, poor fit]",–
CN1C(=O)/C(=C2/C=Cc3ccccc3N2CCCS(=O)(=O)O)SC1=S,inactive,–
CC(=O)/C(C)=N\O,"inconclusive: 0.15 µM [inhibitor, partial curve, poor fit]",–
Cc1ccc(NC(=S)NC(NC(=O)c2ccccc2)C(Cl)(Cl)Cl)c(C)c1 (stereo not drawn),"inconclusive: 63.1 µM [inhibitor, partial curve, poor fit]",–
Cc1c(Cl)cccc1NC(=O)CN1C(=O)CCn2nc(-c3cccn3C)cc21,inactive,–
CCOc1cc(/C=C2/C(=O)ON=C2C)ccc1OCc1ccccc1,"inconclusive: 50.1 µM [inhibitor, partial curve, poor fit]",–

Structure (SMILES),Potency,"activity change, negative = inhibition"
COc1ccc(CN2CCN(C(=O)c3cc(OC)c(OC)c(OC)c3)CC2)cc1OC,inactive,–
CCCCCCCCCCCCCCCCOCC(CO)OC (stereo not drawn),"inconclusive: 37.7 µM [inhibitor, partial curve, poor fit]",–
CC1=C(C(=O)OCc2ccc3c(c2)OCO3)C(c2ccc(O)c([N+](=O)[O-])c2)NC(=O)N1 (stereo not drawn),"inconclusive: 50.1 µM [inhibitor, partial curve, poor fit]",–
CCOC(=O)C1=C(C)N=c2s/c(=C\c3ccc(OCC(=O)O)cc3)c(=O)n2C1c1ccc(Cl)cc1 (stereo not drawn),"inconclusive: 50.1 µM [inhibitor, partial curve, poor fit]",–
CS(=O)(=O)c1sc(C(=O)NC(=S)Nc2ccc(OC(F)(F)F)cc2)c2c1C=CCC2,"inconclusive: 50.1 µM [inhibitor, partial curve, poor fit]",–
O=C(CCc1ccc(O)cc1)c1c(O)cc(O)cc1O,active: 18.9 µM,–
Fc1ccc(/C=N/Nc2nc(-c3cccnc3)nc3ccccc23)cc1,"inconclusive: 50.1 µM [inhibitor, partial curve, poor fit]",–
Cc1oc(-c2ccc(Cl)cc2)nc1CSCC(=O)NCCCN1CCOCC1,inactive,–
COc1ccc(OC)c(S(=O)(=O)N(C(C)=O)c2ccc3oc(=O)sc3c2)c1,"inconclusive: 100 µM [inhibitor, partial curve, poor fit]",–
COc1cc(OC)c(OC)cc1/C=C1\CC(C)C/C(=C\c2cc(OC)c(OC)cc2OC)C1=O (stereo not drawn),"inconclusive: 56.2 µM [inhibitor, partial curve, poor fit]",–
CCOC(=O)c1c(-n2cnnn2)sc(C)c1C,"inconclusive: 56.2 µM [inhibitor, partial curve, poor fit]",–
COc1ccc(NC(=O)CSc2nnc(C3CC3)n2C)cc1S(=O)(=O)N1CCOCC1,"inconclusive: 89.1 µM [inhibitor, single point]",–
O=S(=O)(Cc1ccc(Cl)cc1)c1ccccc1-c1nnc(-c2ccc(Cl)cc2)o1,inactive,–
Cc1sc(N/N=C/c2cccs2)nc1-c1ccccc1,"inconclusive: 44.7 µM [inhibitor, partial curve, poor fit]",–
CN(C)c1ccc(NS(=O)(=O)c2cc(Cl)ccc2Cl)cc1,inactive,–
O=c1c(-c2n[nH]c(=S)o2)cccn1Cc1ccccc1,"inconclusive: 79.4 µM [inhibitor, partial curve, poor fit]",–
O=S(=O)(CCN1CCCCC1)Oc1ccc(Cl)cc1Cl,inactive,–
CSc1ccc(CNC(=O)c2cc3c(=O)n(Cc4ccco4)ccc3nc2C)cc1,"inconclusive: 89.1 µM [inhibitor, partial curve, poor fit]",–
CCc1n[nH]c(=S)n1/N=C/c1ccc2c(c1)OCO2,inactive,–
Cc1cccc2c1NC(=O)/C2=C\C(=O)c1cccs1,"inconclusive: 50.1 µM [inhibitor, partial curve, poor fit]",–
O=C(/N=C1\NC(=O)C(F)(C(F)(F)F)S1)NC1CCCCC1 (stereo not drawn),"inconclusive: 50.1 µM [inhibitor, partial curve, poor fit]",–

Structure (SMILES),Potency,"activity change, negative = inhibition"
N#Cc1cc(-c2ccccc2)nn1-c1ccccc1,"inconclusive: 70.8 µM [inhibitor, partial curve, poor fit]",–
COc1ccc(CCCC(=O)Nc2ccc(F)cc2)cc1,"inconclusive: 56.2 µM [inhibitor, partial curve, poor fit]",–
CCn1c(C)nc2cc(S(N)(=O)=O)ccc21,"inconclusive: 31.6 µM [inhibitor, full curve, poor fit]",–
COc1ccccc1NS(=O)(=O)c1cc(N)ccc1N1CCOCC1,"inconclusive: 50.1 µM [inhibitor, partial curve, poor fit]",–
Brc1cccc(C2Nc3cccc4cccc(c34)N2)c1,inactive,–
CCCN(CCC)c1nc(N)nc(-c2cc(Cl)ccc2OC)n1,–,inactive: 16% [at 11.4 µM]
CN(C)CCN1C(=O)c2ccccc2N(C)c2ccccc21,"inconclusive: 4.23 µM [inhibitor, partial curve, poor fit]",–
COc1ccccc1/C=C1/C(=O)N(c2ccccc2)N=C1C,"inconclusive: 56.2 µM [inhibitor, partial curve, poor fit]",–
CN=C(NC#N)NCCSCc1csc(N=C(N)N)n1,"inconclusive: 0.0189 µM [inhibitor, full curve, poor fit]",–
Cc1c(C#N)c2ccccc2n1CC(=O)N1CCCC1,"inconclusive: 79.4 µM [inhibitor, partial curve, poor fit]",–
C[C@](O)(C(=O)Nc1ccc(S(=O)(=O)c2ccccc2)cc1)C(F)(F)F,"inconclusive: 2.99 µM [inhibitor, partial curve, poor fit]",–
CCc1[nH]nc(C(=O)N2CCCC(CCC(=O)N3CCN(c4ccccn4)CC3)C2)c1C (stereo not drawn),"inconclusive: 89.1 µM [inhibitor, single point]",–
COc1c(C)cccc1C(=O)Nc1ccc(CN2CCOCC2)cc1,inactive,–
CC(=O)N/C(=C\c1cccc([N+](=O)[O-])c1)C(=O)NC1CCCCC1,inactive,–
O=C(Nc1ccc2nc(-c3ccco3)c(-c3ccco3)nc2c1)N1CCN(c2ccccn2)CC1,"inconclusive: 56.2 µM [inhibitor, partial curve, poor fit]",–
CCc1ccc(N(CC(=O)O)S(=O)(=O)c2c(C)noc2C)cc1,"inconclusive: 79.4 µM [inhibitor, single point]",–
O=C(NNc1cccc(Cl)n1)c1ccccc1CC[N+](=O)[O-],"inconclusive: 31.6 µM [inhibitor, full curve, poor fit]",–
Cc1ccc(S(=O)(=O)N2CCCCC2)cc1NC(=O)CSc1nnc(C2CC2)n1N,"inconclusive: 79.4 µM [inhibitor, single point]",–
c1ccc2c(c1)OCC(c1nn3c(Cn4nnc5ccccc54)nnc3s1)O2 (stereo not drawn),"inconclusive: 79.4 µM [inhibitor, partial curve, poor fit]",–
c1ccc(COn2nnc3ccccc32)c(COn2nnc3ccccc32)c1,"inconclusive: 50.1 µM [inhibitor, partial curve, poor fit]",–
COc1ccc(NC(=S)Nc2ccc3nsnc3c2)cc1,"inconclusive: 22.4 µM [inhibitor, full curve, poor fit]",–
